From PMC6919601, “Identification of Plasmodium dipeptidyl aminopeptidase allosteric inhibitors by high throughput screening” (PLoS ONE, 2019)
Where “and” joins values, the source holds several entries; their conditions need not be identical. Equal entries are not always repeated. Out of some 110,000 compounds screened, about 230 (0.21%) showed an effect of 50% or more. This is one part of the list.

Each compound was assayed against DPAP1 (Plasmodium falciparum, UniProt Q8IIJ9) (assay: primary screen, percent inhibition; read by cleavage of a fluorogenic dipeptide substrate; higher = more effect of the substance).
Chain of DPAP1 (Q8IIJ9 whole entry, looked up): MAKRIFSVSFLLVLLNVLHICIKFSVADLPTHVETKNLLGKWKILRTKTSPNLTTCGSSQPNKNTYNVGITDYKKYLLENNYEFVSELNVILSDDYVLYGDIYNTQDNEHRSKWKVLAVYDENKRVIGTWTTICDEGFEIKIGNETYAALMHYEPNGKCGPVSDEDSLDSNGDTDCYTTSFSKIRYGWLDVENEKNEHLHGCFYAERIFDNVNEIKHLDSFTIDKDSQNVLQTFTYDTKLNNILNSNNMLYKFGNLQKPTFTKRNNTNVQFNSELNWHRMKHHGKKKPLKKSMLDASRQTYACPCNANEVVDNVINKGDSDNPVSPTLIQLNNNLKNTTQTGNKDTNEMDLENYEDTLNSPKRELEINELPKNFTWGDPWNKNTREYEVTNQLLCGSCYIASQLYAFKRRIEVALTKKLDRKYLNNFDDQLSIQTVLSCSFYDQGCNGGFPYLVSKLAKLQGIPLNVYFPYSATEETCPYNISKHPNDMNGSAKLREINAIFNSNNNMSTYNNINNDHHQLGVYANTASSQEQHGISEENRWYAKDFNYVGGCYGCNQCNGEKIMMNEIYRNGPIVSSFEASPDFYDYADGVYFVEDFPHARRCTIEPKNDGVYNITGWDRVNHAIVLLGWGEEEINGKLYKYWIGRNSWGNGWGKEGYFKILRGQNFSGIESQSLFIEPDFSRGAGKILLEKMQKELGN
Design: species or system P. falciparum D10 trophozoite lysates; single well
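Also: 30 min substrate incubation versus DMSO and 10 µM JCP410 controls.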

Compound	% Inhibition @ 10 uM
COCCNC(=O)c1cnc2ccc(S(=O)(=O)N3CCOCC3)cc2c1O	-3.21%
CCO/C(O)=C1\C(C)=NC2=C(C(=O)CCC2)C1c1ccccc1OCc1ccccc1 (stereo not drawn)	0.736%
Cc1ccc(CCNC(=O)CCNS(=O)(=O)c2ccc3nc(O)ccc3c2)cc1	-7.1%
O=C(Cn1cnc2ccccc21)Nc1cccc(C(F)(F)F)c1	-4.61%
CN(Cc1ccccc1)S(=O)(=O)c1nnc(NC(=O)CN2C(=O)c3ccccc3C2=O)s1	-0.959%
CCOc1ccccc1NC(=O)CCC1CCCC1	-0.872%
COc1ccc(/C=C2/C(=O)c3ccc(C(=O)O)cc3C2=O)cc1OC	-1.6%
c1ccc(CC(NCc2c[nH]c3ccccc23)c2ccccc2)cc1 (stereo not drawn)	-5.16%
NC(=O)C(Cc1ccccc1)C1=NC2(CCCC2)Cc2ccccc21 (stereo not drawn)	-0.884% and -3.26%
Cc1cccc(C)c1NC(=O)CN1C(=O)S/C(=C/c2cc(C)n(-c3ccncc3)c2C)C1=O	-2.29%
CC(C)C[C@H](NC(=O)c1ccc(OCc2csc(N3CCNCC3)n2)cc1)C(=O)NCC#N	-3.04%
N#Cc1cc2c(=O)n3ccccc3nc2n(CC2CCCO2)c1=N (stereo not drawn)	-3.27%
Cc1ccc(S(=O)(=O)N2CCC(C(=O)N3CCC(C(=O)NCc4ccccc4)CC3)CC2)cc1	3.66%
Cc1cc(C)c(NS(=O)(=O)c2ccc(NC(=O)c3cccs3)cc2)c(C)c1	5.47%
CCCOC(=O)c1ccc(NC(=O)c2ccc(-c3ccccc3)cc2)cc1	1.26%
O=c1oc(-c2ccc(-c3ccccc3)cc2)nc2ccccc12	-0.233%
CCN1CCN(c2nc3c(c(=O)[nH]c(=O)n3C)n2CCCSc2ncccn2)CC1	-6.43%
CC1=C(C(=O)Nc2ccccc2C)C(c2cccc(C)c2)n2nc(CCCO)nc2N1 (stereo not drawn)	7.14%
CC1(C)CC(O)=C/C(=N/Cc2ccccc2)C1	11.8%
CCOC(=O)C1CCCn2c1nc1scc(-c3ccccc3)c1c2=O (stereo not drawn)	-0.693%
O=C(Nc1ccc(NC(=O)c2cccc(S(=O)(=O)N3CCCCC3)c2)cc1)c1ccccc1	-9.31%
O=P(O)(CCc1ccncc1)CN1CCCCC1	4.97%
COCCCNC(=O)c1ccc(CS(=O)(=O)c2ccccc2C)o1	3.77%
COc1cc(-n2c(C)nc3cc(C(=O)NCc4ccc(F)cc4)ccc32)cc(OC)c1OC	-0.458%

Compound	% Inhibition @ 10 uM
COc1cccc(/C=C/C(=O)NCC(=O)O)c1OC	-8.34%
O=C(Nc1ccccc1)c1ccccc1NC(=O)C(F)(F)F	7.09%
O=C1CCc2cccc3c(O)c(-c4ccccc4)c(O)c1c23	0.674%
CC(=O)c1ccc(NS(=O)(=O)c2cccc(C(F)(F)F)c2)cc1	-7.83%
COc1cc2c(cc1OC)C(c1ccc(Cl)cc1Cl)N(C)CC2 (stereo not drawn)	-4.3%
CCN(CC)CCC(=O)N1N=C(c2ccc(C)cc2)CC1c1ccc(OC)cc1 (stereo not drawn)	0.884%
COc1cccc(CNC(=O)CN(C)c2nn3c(=O)cc(C)nc3s2)c1	6.06%
O=C(NCCc1nc2ccccc2n1C/C=C/c1ccccc1)c1ccco1	-2.99%
Cc1cc(Nc2ccc(Br)cc2)nc(-c2ccccc2O)n1	6.15%
O=C(c1ccc(C#Cc2ccccc2)cc1)N1CCN(c2ccccn2)CC1	-6.83%
Cc1c(C(=O)NCCC2=CCCCC2)oc2ccc(S(=O)(=O)N3CCOCC3)cc12	6.66%
CCn1nc(-c2ccncc2)nc2c(=O)n(C)c(=O)nc1-2	5.92%
N#C/C(=C(/O)C(F)(F)F)c1nc2ccccc2[nH]1	18.3%
COc1cccc(N(CC(=O)NCc2ccccc2)S(=O)(=O)c2ccccc2)c1	-1.43%
COc1ccc2c(CNCCc3ccccc3C)c(C(=O)O)n(Cc3ccc(C)cc3)c2c1	-0.959%
CN(C)CCN(C(=O)C1CCCCC1)c1nc2c(F)cc(F)cc2s1	-0.0255%
N#CC1=C(n2cccc2)OC2=C(C(=O)CCC2)C1c1ccc(F)cc1 (stereo not drawn)	3.47%
O=C(NCc1ccccc1F)c1cccc(C(=O)NCc2ccccc2F)c1	1.93%
COc1ccc(C(=O)Cn2cnc3c(oc4ccccc43)c2=O)cc1	-6.05%
CS(=O)(=O)C1=NSC2=NC(=O)/C(=C\c3c[nH]c4ccccc34)C(=N)N21	-3.39%
CN(C)CCn1c(N)nc2ccccc21	5%
COc1cc(/C=C2/C(=N)N3OC(C)=CC3=NC2=O)ccc1OCCOc1ccc(Br)cc1	2%
Cc1nc2ccn(Cc3ccccc3)c(=O)c2cc1C(=O)N1CCOCC1	1.63%
FC(F)C(F)(F)c1cc(-c2ccccc2)[nH]n1	3.06%
